Results on 146 sequences are retold here after the BET-seq Pho4 binding data (Le et al. 2018).

The list shows a part of the results. The energies were worked out here from pooled read counts, against the library average; single values are noisy.

For the test, the target named is T1, Pho4 (S. cerevisiae) (UniProt P07270).
T1 sequence: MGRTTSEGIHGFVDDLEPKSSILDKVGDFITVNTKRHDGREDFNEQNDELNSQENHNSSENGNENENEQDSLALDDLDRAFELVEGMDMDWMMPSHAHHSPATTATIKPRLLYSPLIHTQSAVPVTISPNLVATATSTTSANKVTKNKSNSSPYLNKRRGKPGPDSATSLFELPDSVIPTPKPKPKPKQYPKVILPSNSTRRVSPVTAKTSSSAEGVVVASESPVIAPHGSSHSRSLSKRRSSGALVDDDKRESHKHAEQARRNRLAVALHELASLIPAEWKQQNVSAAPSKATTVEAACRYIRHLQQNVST
The test is described as follows: relative binding free energy (BET-seq); higher = weaker binding. The settings on record: reference: library average.
With GTAAACACGTGGAGGG, the “relative binding free energy” value is 0 kcal/mol.
To TTCTGCACGTGCTGTT belongs -0.13 kcal/mol; to TGTCGCACGTGATAGT, 0.08 kcal/mol; to TTAGACACGTGAGGCG, 0.13 kcal/mol.
To ATTTGCACGTGTGTTA belongs 0.03 kcal/mol; to TCTGACACGTGTGTGA, 0.05 kcal/mol.
To AGCTACACGTGGGTTG belongs -0.11 kcal/mol.
Regarding TAGGACACGTGGAGTG, the “relative binding free energy” value was determined as 0.09 kcal/mol.
Take TGGGCCACGTGAGAGC: the “relative binding free energy” value was determined as 0.33 kcal/mol.
Consider GAAGTCACGTGTGTAA, for which the “relative binding free energy” value was 0.3 kcal/mol.
In the case of CATGGCACGTGGGGAG, the “relative binding free energy” value is -0.17 kcal/mol.
Regarding ACGTTCACGTGGTGTA, the “relative binding free energy” value was 0.2 kcal/mol.
To AGTATCACGTGTTTAT belongs 0.22 kcal/mol; to AGGCCCACGTGGTGGG, -0.14 kcal/mol.
The same measure for ACTTACACGTGGGGAT: 0.12 kcal/mol.
To ATCGGCACGTGAGGTA belongs 0 kcal/mol; to GGGGCCACGTGTCGTT, -0.04 kcal/mol; to AAATTCACGTGAAGTA, 0.4 kcal/mol.
As for AGAAGCACGTGATTGT, the “relative binding free energy” value was 0.15 kcal/mol.
To TTGTTCACGTGGGGCA belongs 0.07 kcal/mol.
The same measure for ACGGTCACGTGGGGTC: -0.16 kcal/mol; for GGTGACACGTGTTGTG: -0.03 kcal/mol.
The same measure for GGAATCACGTGATTAG: 0.29 kcal/mol.
Turning to GACTTCACGTGAAGGT, the “relative binding free energy” value was 0.44 kcal/mol.
To GTATCCACGTGTAGGG belongs 0.01 kcal/mol; to ATTAACACGTGAAGGG, 0.17 kcal/mol; to GGCGGCACGTGTGTGC, -0.13 kcal/mol.
The same measure for TGGGTCACGTGCATTT: 0.18 kcal/mol; for GAGTTCACGTGGGTGA: 0.27 kcal/mol.
Regarding TGTATCACGTGTGGCT, the “relative binding free energy” value was found to be 0.08 kcal/mol.
The same measure for TGGGTCACGTGGAAAA: 0.28 kcal/mol; for ATTGTCACGTGGCGAA: -0.01 kcal/mol.
In the case of TTTTACACGTGCATAT, the “relative binding free energy” value was determined as 0.07 kcal/mol.
Regarding TTCAGCACGTGTAAGA, the “relative binding free energy” value was found to be 0.21 kcal/mol.
The same measure for GTAGGCACGTGTCGCG: -0.14 kcal/mol; for GATGTCACGTGCGGGA: 0.25 kcal/mol.
Consider CTTATCACGTGGATGT, for which the “relative binding free energy” value was found to be 0.02 kcal/mol.
CTTTACACGTGTGGGT: the “relative binding free energy” value turned out to be 0.2 kcal/mol.
To ACTTTCACGTGGTATT belongs 0.2 kcal/mol; to ATAGGCACGTGCGTAG, -0.14 kcal/mol.
To ATGTTCACGTGGCTTG belongs 0.22 kcal/mol; to CGATGCACGTGTTTTT, -0.02 kcal/mol; to GCGTACACGTGGGTTA, -0.01 kcal/mol.
To GATTACACGTGTTATA belongs 0.26 kcal/mol.
As to TGTTGCACGTGCAGGT, the “relative binding free energy” value is -0.07 kcal/mol.
To TTGGGCACGTGGCGTT belongs -0.09 kcal/mol.
To GTATTCACGTGGGACG belongs 0.18 kcal/mol.
To TTAGGCACGTGCAGGG belongs -0.16 kcal/mol; to GGTAACACGTGGGGGG, -0.05 kcal/mol; to AGCTACACGTGGGTGT, -0.12 kcal/mol.
On to TATTGCACGTGGACGT, for which the “relative binding free energy” value was -0.1 kcal/mol.
The same measure for TACGTCACGTGTTGCG: 0.06 kcal/mol; for ATCTTCACGTGTTTAG: 0.24 kcal/mol.
TTGTTCACGTGTCACG: the “relative binding free energy” value was 0.27 kcal/mol.
The same measure for GGGCTCACGTGGATAG: 0.31 kcal/mol; for ATTGTCACGTGGCGAG: 0.06 kcal/mol; for GGCTTCACGTGGTATG: 0.36 kcal/mol.
To TTGGTCACGTGCAAAG belongs 0.11 kcal/mol; to ATCGGCACGTGTTGGG, -0.06 kcal/mol; to GTTAGCACGTGGTTGC, -0.21 kcal/mol.
In the case of TAGCTCACGTGAGTGT, the “relative binding free energy” value is 0.36 kcal/mol.
To ATATGCACGTGTGGTT belongs 0.1 kcal/mol; to AGGGCCACGTGTGGGG, -0.14 kcal/mol.
To TATGTCACGTGCGCTT belongs -0.1 kcal/mol; to AGAGGCACGTGATGAT, -0.03 kcal/mol; to TGGGCCACGTGGTGGC, -0.02 kcal/mol.
As to GAGGGCACGTGGGCTC, the “relative binding free energy” value was -0.18 kcal/mol.
The same measure for AGTATCACGTGGGCCG: -0.02 kcal/mol; for GACAGCACGTGTTGTT: -0.02 kcal/mol.
Take TTACTCACGTGTAATT: the “relative binding free energy” value was 0.18 kcal/mol.
To ATCGTCACGTGTCGGT belongs 0.1 kcal/mol; to GTGCTCACGTGGGCAT, 0.13 kcal/mol; to CTTTACACGTGTAGAT, 0.37 kcal/mol.
As for AGTAACACGTGTGCGT, the “relative binding free energy” value was -0.06 kcal/mol.
The same measure for GAAGGCACGTGAAAGG: 0.35 kcal/mol.
To AGATGCACGTGTTTGT belongs -0.07 kcal/mol.
To GTGTGCACGTGCTGCA belongs 0.02 kcal/mol; to ATTAACACGTGAGTCT, 0.23 kcal/mol.
Regarding TATCACACGTGTATTT, the “relative binding free energy” value stood at 0.17 kcal/mol.
The same measure for TGCTTCACGTGTTGTG: 0.25 kcal/mol; for TCGTACACGTGTCTTG: 0.15 kcal/mol; for GTTAGCACGTGTCGGA: 0.18 kcal/mol.
As to GGGTGCACGTGCAGCG, the “relative binding free energy” value was -0.14 kcal/mol.
To AGGTCCACGTGGGAGT belongs -0.09 kcal/mol.
The same measure for GTATTCACGTGGCGGA: 0.22 kcal/mol; for CAGTGCACGTGTGTAG: -0.19 kcal/mol; for ATGTACACGTGATGGG: 0.15 kcal/mol.
The same measure for AAGTGCACGTGGGTTG: -0.25 kcal/mol; for CGTAACACGTGTTGGA: 0.09 kcal/mol; for ATGGACACGTGGTCGG: -0.1 kcal/mol.
For the sequence TAGTTCACGTGTGAAC, the “relative binding free energy” value came out at 0.38 kcal/mol.
To TCAGTCACGTGGTGGT belongs 0.1 kcal/mol; to AGTAGCACGTGGAGTT, -0.01 kcal/mol; to CGTTACACGTGTTAGT, 0.14 kcal/mol.
To GGTTGCACGTGCTAGT belongs -0.01 kcal/mol; to GGGCGCACGTGGAGGG, -0.11 kcal/mol; to GTGCGCACGTGGCGTG, -0.16 kcal/mol.
To CTCGGCACGTGTTGGG belongs -0.05 kcal/mol; to TTACGCACGTGTGTTT, -0.14 kcal/mol; to TTAAGCACGTGTGGTG, -0.13 kcal/mol.
TTTTTCACGTGTGGGT: the “relative binding free energy” value came out at 0.38 kcal/mol.
The same measure for TTCTACACGTGTGTTG: -0.03 kcal/mol; for ATTTACACGTGGGTGG: 0.01 kcal/mol; for GCGTTCACGTGGGGTA: 0.18 kcal/mol.
To GCGGTCACGTGTATGT belongs 0.08 kcal/mol; to TAATGCACGTGGGTAG, -0.2 kcal/mol.
On to TGGGTCACGTGGTGTG, for which the “relative binding free energy” value stood at 0.12 kcal/mol.
To TAGGCCACGTGTTTAG belongs -0.11 kcal/mol.
The same measure for GTGCGCACGTGTTTGA: -0.22 kcal/mol; for GTGGACACGTGTTTCG: 0 kcal/mol.
To ACGGGCACGTGGTGGT belongs -0.09 kcal/mol; to GGTGACACGTGAGCTG, 0.3 kcal/mol.
For CGTGACACGTGTGCTG, the “relative binding free energy” value stood at 0.07 kcal/mol.
To GTGGCCACGTGGGCGT belongs -0.24 kcal/mol; to GTTATCACGTGTGTTG, 0.15 kcal/mol; to AGTGACACGTGGGAAT, -0.03 kcal/mol.
The same measure for CGGTACACGTGGTGCG: -0.02 kcal/mol; for TAGGTCACGTGGAGTA: 0.14 kcal/mol.
To TACTTCACGTGTGGAT belongs 0.24 kcal/mol.
Take TCAGTCACGTGGGTGC: the “relative binding free energy” value is -0.11 kcal/mol.
The same measure for CGGTTCACGTGCGAGG: 0.42 kcal/mol; for TAAGTCACGTGTGTCT: 0 kcal/mol; for GTCTTCACGTGTTAAT: 0.3 kcal/mol.
Regarding GGTGTCACGTGACTTG, the “relative binding free energy” value is 0.18 kcal/mol.
The same measure for GTTATCACGTGGTTGA: 0.15 kcal/mol; for ATGCGCACGTGTCTTT: 0 kcal/mol; for AGGTGCACGTGGTTGA: -0.17 kcal/mol.
For the sequence TATTGCACGTGGCGAG, the “relative binding free energy” value was -0.07 kcal/mol.
Take AAGTCCACGTGGGTTT: the “relative binding free energy” value is 0.02 kcal/mol.
To AAGGGCACGTGAGTAG belongs 0.08 kcal/mol; to GGAGGCACGTGACGAG, -0.01 kcal/mol.
The same measure for AAGAACACGTGGGAGG: -0.06 kcal/mol; for TTAGTCACGTGGAGAT: 0.06 kcal/mol.
The same measure for TAGGGCACGTGTGAGG: -0.04 kcal/mol; for GCTTGCACGTGGGTTG: -0.09 kcal/mol; for TCGGGCACGTGACGAG: 0.09 kcal/mol.
On to GTGGACACGTGTATGC, for which the “relative binding free energy” value is 0.05 kcal/mol.
The same measure for CGGATCACGTGGTTAG: 0.12 kcal/mol; for AAATACACGTGGGGGA: -0.08 kcal/mol.
The same measure for ATGCTCACGTGGGTTA: -0.03 kcal/mol.
TTTGTCACGTGTGGCT: the “relative binding free energy” value came to 0.18 kcal/mol.
To TGTCTCACGTGTTAAT belongs 0.32 kcal/mol.
To TGGTTCACGTGTACCG belongs 0.3 kcal/mol.
To TACTCCACGTGGGGTT belongs 0.01 kcal/mol; to TTTTGCACGTGCGTGA, -0.03 kcal/mol; to GTGTACACGTGGAACG, 0.11 kcal/mol.
